Among the data in ChEMBL document CHEMBL1250430, “Synthesis, semipreparative HPLC separation, biological evaluation, and 3D-QSAR of hydrazothiazole derivatives as human monoamine oxidase B inhibitors” (Bioorg Med Chem, 2010) are IC50 values, retold here.

One assay deals with T1, Amine oxidase [flavin-containing] A (Homo sapiens, UniProt P21397).
T1 sequence (P21397 whole entry): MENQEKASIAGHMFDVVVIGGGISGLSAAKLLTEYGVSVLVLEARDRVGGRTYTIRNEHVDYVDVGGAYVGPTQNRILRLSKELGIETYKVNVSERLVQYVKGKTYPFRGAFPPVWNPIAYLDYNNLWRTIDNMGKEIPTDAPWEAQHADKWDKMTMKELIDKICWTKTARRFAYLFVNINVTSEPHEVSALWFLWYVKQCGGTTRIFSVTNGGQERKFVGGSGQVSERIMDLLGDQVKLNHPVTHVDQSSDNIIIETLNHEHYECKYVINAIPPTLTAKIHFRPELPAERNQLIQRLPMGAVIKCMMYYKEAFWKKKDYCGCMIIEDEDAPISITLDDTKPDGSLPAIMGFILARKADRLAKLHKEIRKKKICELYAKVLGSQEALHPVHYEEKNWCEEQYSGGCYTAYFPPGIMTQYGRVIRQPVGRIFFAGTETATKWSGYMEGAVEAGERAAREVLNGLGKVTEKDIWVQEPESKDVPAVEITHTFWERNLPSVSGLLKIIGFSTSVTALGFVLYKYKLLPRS
Assay: not given
The conditions noted are these: bti-tn-5b1-4.
`COc1ccc(-c2csc(NN=C3CCC(C)CC3)n2)cc1` (stereo unspecified): the concentration for half-maximal inhibition (IC50) amounted to 5.76 µM.

`CC1CCC(=NNc2nc(-c3ccc(Cl)cc3)cs2)CC1` (stereo unspecified) came in with an IC50 of 15.2 µM.

The target of another assay is T1, Amine oxidase [flavin-containing] A. Briefly: biochemical.
Conditions: not given
As to `CC1CCCC/C1=N\Nc1nc(-c2ccc(Cl)cc2Cl)cs1` (stereo unspecified), the IC50 is 44.7 µM.

`C[C@@H]1CCCC/C1=N\Nc1nc(-c2ccc([N+](=O)[O-])cc2)cs1` registered an IC50 of 44 µM. The IC50 values of the last two compounds are within 1.5-fold of each other.

`C[C@H]1CCCC/C1=N\Nc1nc(-c2ccc([N+](=O)[O-])cc2)cs1` displayed a concentration for half-maximal inhibition (IC50) of 42.3 µM. The IC50 values of the last two compounds are within 1.5-fold of each other.

The compound `Clc1ccc(-c2csc(NN=C3CCCCC3)n2)cc1` gave a half-inhibitory concentration (IC50) of 2.91 µM.

For the compound `Fc1ccc(-c2csc(NN=C3CCCCC3)n2)cc1`, the IC50 is 1.75 µM.

In the case of `O=[N+]([O-])c1ccc(-c2csc(NN=C3CCCCC3)n2)cc1`, the IC50 amounted to 24.2 µM.

For the compound `N#Cc1ccc(-c2csc(NN=C3CCCCC3)n2)cc1`, the IC50 is 4.84 µM.

Consider `CC1CCCC/C1=N\Nc1nc(-c2ccccc2)cs1` (stereo unspecified), for which 41.2 µM corresponded to half-maximal inhibition (IC50).

The compound `COc1ccc(-c2csc(N/N=C3\CCCCC3C)n2)cc1` (stereo unspecified) registered a 50% inhibitory concentration (IC50) of 2.76 µM.
